# The other results are listed elsewhere or left out.
# B1: SRA-1 (Homo sapiens), P21757 (protein)
# chain: MEQWDHFHNQQEDTDSCSESVKFDARSMTALLPPNPKNSPSLQEKLKSFKAALIALYLLVFAVLIPLIGIVAAQLLKWETKNCSVSSTNANDITQSLTGKGNDSEEEMRFQEVFMEHMSNMEKRIQHILDMEANLMDTEHFQNFSMTTDQRFNDILLQLSTLFSSVQGHGNAIDEISKSLISLNTTLLDLQLNIENLNGKIQENTFKQQEEISKLEERVYNVSAEIMAMKEEQVHLEQEIKGEVKVLNNITNDLRLKDWEHSQTLRNITLIQGPPGPPGEKGDRGPTGESGPRGFPGPIGPPGLKGDRGAIGFPGSRGLPGYAGRPGNSGPKGQKGEKGSGNTLTPFTKVRLVGGSGPHEGRVEILHSGQWGTICDDRWEVRVGQVVCRSLGYPGVQAVHKAAHFGQGTGPIWLNEVFCFGRESSIEECKIRQWGTRACSHSEDAGVTCTL
# Tests used:
# Assay in all cases: glycan array binding signal (z-score within array); higher = stronger binding
# Settings in all cases: glycan notation: IUPAC condensed, linker removed
# [1] = molecular target: Neu5Ac(a2-6)Gal(b1-4)GlcNAc(b1-3)Gal(b1-4)GlcNAc(b1-3)Gal(b1-4)GlcNAc(b1-2)Man(a1-3)[Neu5Ac(a2-6)Gal(b1-4)GlcNAc(b1-3)Gal(b1-4)GlcNAc(b1-3)Gal(b1-4)GlcNAc(b1-2)Man(a1-6)]GalNAc
# Procedure, shortened: (§1)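 From the Consortium for Functional Glycomics database, 3228 arrays were curated, keeping only those whose protein sequence was available. Binding is given as a within-array Z-score averaged across arrays sharing a protein sequence and across linkers. Negative Z-scores can be read as non-binding.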
# [2] = molecular target: Neu5Ac(a2-6)Gal(b1-4)GlcNAc(b1-3)Gal(b1-4)GlcNAc(b1-3)GalNAc
# Procedure, shortened: as §1
# [3] = molecular target: Neu5Ac(a2-6)Gal(b1-4)GlcNAc(b1-3)Gal(b1-4)GlcNAc(b1-3)[Neu5Ac(a2-6)Gal(b1-4)GlcNAc(b1-3)Gal(b1-4)GlcNAc(b1-6)]GalNAc
# Procedure, shortened: as §1
# [4] = molecular target: Neu5Ac(a2-6)Gal(b1-4)GlcNAc(b1-3)Gal(b1-4)GlcNAc(b1-6)[Gal(b1-3)]GalNAc
# Procedure, shortened: as §1
# [5] = molecular target: Neu5Ac(a2-6)Gal(b1-4)GlcNAc(b1-3)Gal(b1-4)[Fuc(a1-3)]GlcNAc(b1-3)Gal(b1-4)[Fuc(a1-3)]GlcNAc
# Procedure, shortened: as §1
# [6] = molecular target: Neu5Ac(a2-6)Gal(b1-4)GlcNAc(b1-3)GalNAc
# Procedure, shortened: as §1
# [7] = molecular target: Neu5Ac(a2-6)Gal(b1-4)GlcNAc(b1-3)[Neu5Ac(a2-6)Gal(b1-4)GlcNAc(b1-6)]GalNAc
# Procedure, shortened: as §1
# [8] = molecular target: Neu5Ac(a2-6)Gal(b1-4)GlcNAc(b1-6)GalNAc
# Procedure, shortened: as §1
# [9] = molecular target: Neu5Ac(a2-6)Gal(b1-4)GlcNAc(b1-6)[Gal(b1-3)GlcNAc(b1-3)]Gal(b1-4)Glc
# Procedure, shortened: as §1
# [10] = molecular target: Neu5Ac(a2-6)Gal(b1-4)GlcNAc(b1-6)[Gal(b1-3)]GalNAc
# Procedure, shortened: as §1
# [11] = molecular target: Neu5Ac(a2-6)Gal(b1-4)GlcNAc6S
# Procedure, shortened: as §1
# Neu5Ac(a2-6)GalNAc = molecular target: Neu5Ac(a2-6)GalNAc
# Procedure, shortened: as §1
# [12] = molecular target: Neu5Ac(a2-6)GalNAc(b1-4)GlcNAc
# Procedure, shortened: as §1
# [13] = molecular target: Neu5Ac(a2-6)GalNAc(b1-4)GlcNAc6S
# Procedure, shortened: as §1
# [14] = molecular target: Neu5Ac(a2-6)GlcNAc(b1-4)GlcNAc
# Procedure, shortened: as §1
# [15] = molecular target: Neu5Ac(a2-6)GlcNAc(b1-4)GlcNAc(b1-4)GlcNAc
# Procedure, shortened: as §1
# Neu5Ac(a2-8)Neu5Ac = molecular target: Neu5Ac(a2-8)Neu5Ac
# Procedure, shortened: as §1
# [16] = molecular target: Neu5Ac(a2-8)Neu5Ac(a2-3)Gal(b1-3)GalNAc(b1-4)[Neu5Ac(a2-3)]Gal(b1-4)Glc
# Procedure, shortened: as §1
# [17] = molecular target: Neu5Ac(a2-8)Neu5Ac(a2-3)Gal(b1-3)GalNAc(b1-4)[Neu5Ac(a2-8)Neu5Ac(a2-3)]Gal(b1-4)Glc
# Procedure, shortened: as §1
# [18] = molecular target: Neu5Ac(a2-8)Neu5Ac(a2-3)Gal(b1-4)Glc
# Procedure, shortened: as §1
# [19] = molecular target: Neu5Ac(a2-8)Neu5Ac(a2-3)Gal(b1-4)GlcNAc
# Procedure, shortened: as §1
# [20] = molecular target: Neu5Ac(a2-8)Neu5Ac(a2-3)[Gal(b1-3)GalNAc(b1-4)]Gal(b1-4)Glc
# Procedure, shortened: as §1
# [21] = molecular target: Neu5Ac(a2-8)Neu5Ac(a2-3)[GalNAc(b1-4)]Gal(b1-4)Glc
# Procedure, shortened: as §1
# [22] = molecular target: Neu5Ac(a2-8)Neu5Ac(a2-8)Neu5Ac
# Procedure, shortened: as §1
# [23] = molecular target: Neu5Ac(a2-8)Neu5Ac(a2-8)Neu5Ac(a2-3)Gal(b1-4)Glc
# Procedure, shortened: as §1
# [24] = molecular target: Neu5Ac(a2-8)Neu5Ac(a2-8)Neu5Ac(a2-3)[Gal(b1-3)GalNAc(b1-4)]Gal(b1-4)Glc
# Procedure, shortened: as §1
# [25] = molecular target: Neu5Ac(a2-8)Neu5Ac(a2-8)Neu5Ac(a2-3)[GalNAc(b1-4)]Gal(b1-4)Glc
# Procedure, shortened: as §1
# [26] = molecular target: Neu5Ac(a2-8)Neu5Ac(a2-8)Neu5Ac(a2-8)Neu5Ac(a2-3)[GalNAc(b1-4)]Gal(b1-4)Glc
# Procedure, shortened: as §1
# [27] = molecular target: Neu5Ac(a2-8)Neu5Gc(a2-3)Gal(b1-4)GlcNAc
# Procedure, shortened: as §1
# [28] = molecular target: Neu5Ac(b2-6)Gal(b1-4)GlcNAc
# Procedure, shortened: as §1
# Neu5Ac(b2-6)GalNAc = molecular target: Neu5Ac(b2-6)GalNAc
# Procedure, shortened: as §1
# [29] = molecular target: Neu5Ac9Ac(a2-3)Gal(b1-3)GlcNAc
# Procedure, shortened: as §1
# [30] = molecular target: Neu5Ac9Ac(a2-3)Gal(b1-4)GlcNAc
# Procedure, shortened: as §1
# [31] = molecular target: Neu5Ac9Ac(a2-6)Gal(b1-4)GlcNAc
# Procedure, shortened: as §1
# [32] = molecular target: Neu5Gc(a2-3)Gal(b1-3)GlcNAc
# Procedure, shortened: as §1
# [33] = molecular target: Neu5Gc(a2-3)Gal(b1-3)[Fuc(a1-4)]GlcNAc
# Procedure, shortened: as §1
# Neu5Gc(a2-3)Gal(b1-4)Glc = molecular target: Neu5Gc(a2-3)Gal(b1-4)Glc
# Procedure, shortened: as §1
# [34] = molecular target: Neu5Gc(a2-3)Gal(b1-4)GlcNAc
# Procedure, shortened: as §1
# [35] = molecular target: Neu5Gc(a2-3)Gal(b1-4)GlcNAc(b1-3)Gal(b1-4)GlcNAc(b1-2)Man(a1-3)[Neu5Gc(a2-3)Gal(b1-4)GlcNAc(b1-3)Gal(b1-4)GlcNAc(b1-2)Man(a1-6)]Man(b1-4)GlcNAc(b1-4)GlcNAc
# Procedure, shortened: as §1
# [36] = molecular target: Neu5Gc(a2-3)Gal(b1-4)[Fuc(a1-3)]GlcNAc
# Procedure, shortened: as §1
# [37] = molecular target: Neu5Gc(a2-6)Gal(b1-4)GlcNAc
# Procedure, shortened: as §1
# Neu5Gc(a2-6)GalNAc = molecular target: Neu5Gc(a2-6)GalNAc
# Procedure, shortened: as §1
# [38] = molecular target: Neu5Gc(a2-8)Neu5Ac(a2-3)Gal(b1-4)GlcNAc
# Procedure, shortened: as §1
# [39] = molecular target: Neu5Gc(a2-8)Neu5Gc(a2-3)Gal(b1-4)GlcNAc
# Procedure, shortened: as §1
# [40] = molecular target: Neu5Gc(a2-8)Neu5Gc(a2-3)Gal(b1-4)GlcNAc(b1-3)Gal(b1-4)GlcNAc
# Procedure, shortened: as §1
# [41] = molecular target: Neu5Gc(a2-8)Neu5Gc(a2-6)Gal(b1-4)GlcNAc
# Procedure, shortened: as §1
# [42] = molecular target: Neu5Gc(b2-6)Gal(b1-4)GlcNAc
# Procedure, shortened: as §1
binder,measurement,setting,value
B1,glycan array binding signal (z-score),[1],0.291
same,glycan array binding signal (z-score),[2],-0.133
same,glycan array binding signal (z-score),[3],0.583
same,glycan array binding signal (z-score),[4],-0.079
same,glycan array binding signal (z-score),[5],0.166
same,glycan array binding signal (z-score),[6],-0.285
same,glycan array binding signal (z-score),[7],-0.102
same,glycan array binding signal (z-score),[8],0.169
same,glycan array binding signal (z-score),[9],-0.443
same,glycan array binding signal (z-score),[10],-0.303
same,glycan array binding signal (z-score),[11],-0.35
same,glycan array binding signal (z-score),Neu5Ac(a2-6)GalNAc,0.158
same,glycan array binding signal (z-score),[12],0.14
same,glycan array binding signal (z-score),[13],-0.275
same,glycan array binding signal (z-score),[14],-0.304
same,glycan array binding signal (z-score),[15],-0.497
same,glycan array binding signal (z-score),Neu5Ac(a2-8)Neu5Ac,-0.121
same,glycan array binding signal (z-score),[16],-0.069
same,glycan array binding signal (z-score),[17],0.305
same,glycan array binding signal (z-score),[18],-0.194
same,glycan array binding signal (z-score),[19],0.077
same,glycan array binding signal (z-score),[20],-0.047
same,glycan array binding signal (z-score),[21],-0.401
same,glycan array binding signal (z-score),[22],-0.212
same,glycan array binding signal (z-score),[23],-0.276
same,glycan array binding signal (z-score),[24],-0.473
same,glycan array binding signal (z-score),[25],-0.262
same,glycan array binding signal (z-score),[26],-0.19
same,glycan array binding signal (z-score),[27],-0.167
same,glycan array binding signal (z-score),[28],-0.254
same,glycan array binding signal (z-score),Neu5Ac(b2-6)GalNAc,-0.217
same,glycan array binding signal (z-score),[29],-0.13
same,glycan array binding signal (z-score),[30],-0.604
same,glycan array binding signal (z-score),[31],-0.296
same,glycan array binding signal (z-score),[32],-0.425
same,glycan array binding signal (z-score),[33],-0.292
same,glycan array binding signal (z-score),Neu5Gc(a2-3)Gal(b1-4)Glc,0.827
same,glycan array binding signal (z-score),[34],-0.418
same,glycan array binding signal (z-score),[35],0.684
same,glycan array binding signal (z-score),[36],-0.061
same,glycan array binding signal (z-score),[37],-0.349
same,glycan array binding signal (z-score),Neu5Gc(a2-6)GalNAc,0.135
same,glycan array binding signal (z-score),[38],-0.531
same,glycan array binding signal (z-score),[39],-0.684
same,glycan array binding signal (z-score),[40],-0.164
same,glycan array binding signal (z-score),[41],-0.503
same,glycan array binding signal (z-score),[42],0.555

# — the supplement of paper PMC8728848
